Data published in a collection of fitness landscapes (doi:10.1126/science.1257360).
Some of the results follow.

B1: PhoQ; a variant is named by its letters at X, in order, P23837 (parent)
chain: MKKLLRLFFPLSLRVRFLLATAAVVLVLSLAYGMVALIGYSVSFDKTTFRLLRGESNLFYTLAKWENNKLHVELPENIDKQSPTMTLIYDENGQLLWAQRDVPWLMKMIQPDWLKSNGFHEIEADVNDTSLLLSGDHSIQQQLQEVREDDDDAEMTHSVAVNVYPATSRMPKLTIVVVDTIPVELKSSYMVWSWFIYVLSANLLLVIPLLWVAAWWSLRPIEALAKEVRELEEHNRELLNPATTRELTSLVRNLNRLLKSERERYDKYRTTLTDLTHSLKTPLXXLQXXLRSLRSEKMSVSDAEPVMLEQISRISQQIGYYLHRASMRGGTLLSRELHPVAPLLDNLTSALNKVYQRKGVNISLDISPEISFVGEQNDFVEVMGNVLDNACKYCLEFVEISARQTDEHLYIVVEDDGPGIPLSKREVIFDRGQRVDTLRPGQGVGLAVAREITEQYEGKIVAGESMLGGARMEVIFGRQHSAPKDE

Variants of: B1
Assay: enrichment ratio after two sorts for PhoP signalling (ratio (wild type AVST 3.29)); higher = more functional
Details: with PhoP (E. coli)
Work on SFHQ yielded an enrichment ratio of at most 0.25. APMR gave an enrichment ratio of at most 0.25. MPHA was tested, and the enrichment ratio was at most 0.25. TMLT showed an enrichment ratio of 1.84. SIPW gave an enrichment ratio of at most 0.25. QEYG gave an enrichment ratio of 9.59. TIHT gave an enrichment ratio of at most 0.25. KRMT showed an enrichment ratio of at most 0.25. Variant FSEL has an enrichment ratio of at most 0.25. In the case of DCQH, the enrichment ratio is reported as at most 0.25. Work on MVRL yielded an enrichment ratio of at most 0.25. With QRNK the enrichment ratio was at most 0.25. For MNYE, the enrichment ratio was at most 0.25. FITS showed an enrichment ratio of at most 0.25. GCPY showed an enrichment ratio of at most 0.25. For WYMW, the enrichment ratio was at most 0.25. Work on QVDI yielded an enrichment ratio of at most 0.25. VYIE was tested, and the enrichment ratio was at most 0.25. ASFC showed an enrichment ratio of at most 0.25. Work on HLPE yielded an enrichment ratio of at most 0.25. Work on EHSK yielded an enrichment ratio of at most 0.25. Work on WYQG yielded an enrichment ratio of at most 0.25. In the case of HFWV, the enrichment ratio is reported as at most 0.25. KARE showed an enrichment ratio of at most 0.25. NIPV was tested, and the enrichment ratio was at most 0.25. PNKQ was tested, and the enrichment ratio was at most 0.25. Work on RCQP yielded an enrichment ratio of at most 0.25. Variant MSMM has an enrichment ratio of 11. Variant EELL has an enrichment ratio of at most 0.25. In the case of GWSC, the enrichment ratio is reported as at most 0.25. Variant CSAS has an enrichment ratio of 36.6. LKHK was tested, and the enrichment ratio was at most 0.25. For VYPQ, the enrichment ratio was at most 0.25. With FKHQ the enrichment ratio was at most 0.25. MLYM showed an enrichment ratio of 8.36. Variant MGYE has an enrichment ratio of at most 0.25. Variant EELI has an enrichment ratio of at most 0.25. DVFF gave an enrichment ratio of at most 0.25. Work on YNAF yielded an enrichment ratio of at most 0.25. QYAH showed an enrichment ratio of at most 0.25. Work on PPWW yielded an enrichment ratio of at most 0.25. For NHEA, the enrichment ratio was at most 0.25. Work on HAYQ yielded an enrichment ratio of at most 0.25. ELDE gave an enrichment ratio of at most 0.25. For PTDA, the enrichment ratio was at most 0.25. Variant HNKF has an enrichment ratio of at most 0.25. In the case of HMQS, the enrichment ratio is reported as at most 0.25. For SENL, the enrichment ratio was at most 0.25. Variant PTVR has an enrichment ratio of at most 0.25. TNML gave an enrichment ratio of 1.41. Work on PFHR yielded an enrichment ratio of at most 0.25. HKMV gave an enrichment ratio of at most 0.25. With PEVE the enrichment ratio was at most 0.25. VAFE gave an enrichment ratio of at most 0.25. Work on GNRE yielded an enrichment ratio of at most 0.25. In the case of APIL, the enrichment ratio is reported as at most 0.25. For LDMY, the enrichment ratio was 1.27. FEIV was tested, and the enrichment ratio was at most 0.25. QEFV gave an enrichment ratio of 1.89. For FTMP, the enrichment ratio was at most 0.25. With IICW the enrichment ratio was at most 0.25. With LHVM the enrichment ratio was at most 0.25. IEKI gave an enrichment ratio of at most 0.25. Work on APWE yielded an enrichment ratio of at most 0.25. Variant HQNS has an enrichment ratio of at most 0.25. In the case of YWFE, the enrichment ratio is reported as at most 0.25. Work on GQMT yielded an enrichment ratio of at most 0.25. With PQQN the enrichment ratio was at most 0.25. TGQF gave an enrichment ratio of 3.99. Work on WTVR yielded an enrichment ratio of at most 0.25. EQLT was tested, and the enrichment ratio was at most 0.25. Work on MTFD yielded an enrichment ratio of at most 0.25. With VGMD the enrichment ratio was at most 0.25. Variant STEM has an enrichment ratio of at most 0.25. With IRTL the enrichment ratio was at most 0.25. HHVD gave an enrichment ratio of at most 0.25. With LYGN the enrichment ratio was at most 0.25. VNQT showed an enrichment ratio of at most 0.25. For EPPH, the enrichment ratio was at most 0.25. With KGTH the enrichment ratio was 0.909. TVTE was tested, and the enrichment ratio was at most 0.25. Work on IRNM yielded an enrichment ratio of at most 0.25. Variant TYTQ has an enrichment ratio of at most 0.25. Variant YIYF has an enrichment ratio of at most 0.25. For ICGW, the enrichment ratio was at most 0.25. EHNF showed an enrichment ratio of at most 0.25. Variant YPQN has an enrichment ratio of at most 0.25. In the case of TPRM, the enrichment ratio is reported as at most 0.25. Work on IQRW yielded an enrichment ratio of at most 0.25. FKFA showed an enrichment ratio of at most 0.25. Work on LKWI yielded an enrichment ratio of at most 0.25. WHSA was tested, and the enrichment ratio was at most 0.25. SMVM gave an enrichment ratio of 9.46. SWHH was tested, and the enrichment ratio was at most 0.25. Work on AIVK yielded an enrichment ratio of at most 0.25. Variant WEWT has an enrichment ratio of at most 0.25. For LTTN, the enrichment ratio was at most 0.25.
